Measurements published in PubChem BioAssay AID904 (National Center for Advancing Translational Sciences (NCATS), 2007).
In all, about 55,000 compounds went through this assay and about 530 (0.96%) were called active. Inconclusive means that the source gave no clear call. Such entries were picked first, then a sample of the others. Calls follow the shape of the dose curve; as a rule, active = well fitted cell-killing curve with a large enough effect; inconclusive = small, poorly fitted or top-dose-only effect; inactive = no such curve, though single readings can be large or run the other way. Potencies of inconclusive entries are doubtful fits and often do not repeat.

experiment: qHTS Screen for Compounds that Selectively Target Cancer Cells with p53 Mutations: Cytotoxicity of p53 Null Cells at the Nonpermissive Temperature; conditions: H1299 p53-null (neo) cells, 39C, ATPlite viability, 24 h; activity, negative = cell killing: at 46.1 µM (top of the series); also: nearly all actives have a fitted effect of over 50% in size;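 as to activity, negative = cell killing: 0% = DMSO only and -100% = full killing by 100 µM tamoxifen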
Outline: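 Concentration-response (up to 46 uM) was run for 24 h at the nonpermissive 39C on H1299-p53A138V or H1299-neo cells. ATP content was measured with ATPlite luminescence. AC50 values were Hill-modeled after normalizing between DMSO and 100 uM tamoxifen killing.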
Potency is read from the fitted curve at half-maximal effect; tags tell the direction and shape of the fitted curve.

Row | Structure (SMILES) | Potency | activity, negative = cell killing
1 | CN1CCN(c2oc(-c3ccc(COc4ccc(Cl)cc4)o3)nc2C#N)CC1 | inconclusive: 0.1 µM [cytotoxic, full curve, poor fit] | 
2 | COc1ccc(N2CCN(C(=O)c3ccc4c(c3)N(Cc3ccc(F)cc3)C(=O)c3ccccc3S4=O)CC2)cc1 (centres undefined) | inconclusive: 0.794 µM [cytotoxic, full curve, poor fit] | 
3 | O=C(NCCc1ccc(Cl)cc1)c1ccc(Cn2c(=O)c3cccn3c3cccnc32)cc1 | inconclusive: 25.1 µM [cytotoxic, single point] | 
4 | COC(=O)c1c(SCC(=O)Nc2cc(C)cc(C)c2)[nH]c2ccccc2c1=O | inconclusive: 15.8 µM [cytotoxic, single point] | 
5 | Cc1ccc(CSc2nc3cccnc3n2Cc2ccc(C(=O)NCCc3ccccc3)cc2)cc1 | inconclusive: 14.1 µM [cytotoxic, partial curve] | 
6 | CCOC(=O)C1=C(CS(=O)(=O)c2ccc(C)cc2)NC(=O)NC1c1ccc(C(C)C)cc1 (centres undefined) | inconclusive: 7.94 µM [cytotoxic, partial curve, poor fit] | 
7 | Cc1ccc(C)c(-n2c(CCC(=O)O)ccc2-c2ccc(Cl)cc2)c1 | inactive | 
8 | Cn1c(=O)c2c(-c3ccccc3Cl)n(-c3cc(Cl)ccc3O)cc2n(C)c1=O | inconclusive: 31.6 µM [cytotoxic, single point] | 
9 | Cc1ccc(C(=O)CC2(O)C(=O)N(CCc3ccccc3)c3ccc(Cl)cc32)cc1 (centres undefined) | inconclusive: 20 µM [cytotoxic, single point] | 
10 | O=C(COc1ccc(F)cc1)Nc1ccc2nc(SCC(=O)N3CCc4ccccc43)sc2c1 | inactive | 
11 | COc1ccc(NC(=O)c2oc3ccccc3c2NC(=O)c2cc3ccccc3o2)cc1 | inconclusive: 0.004 µM [cytotoxic, full curve, poor fit] | 
12 | CCOC(=O)/C(C#N)=C/c1ccc(-c2ccccc2)o1 | inconclusive: 31.6 µM [cytotoxic, single point] | 
13 | Cc1ccc(-n2ncc3c(NC4CCCC4)ncnc32)cc1 | inconclusive: 8.91 µM [cytotoxic, partial curve] | 
14 | CCC(C)n1c(=N)c(C(=O)NC2CCCC2)cc2c(=O)n3ccccc3nc21 (centres undefined) | inactive | 
15 | CC1(C)CC(=O)C=C(NNC(=O)C2CCCCC2)C1 | inconclusive: 10 µM [cytotoxic, partial curve, poor fit] | 
16 | COC(=O)C(NC(=O)CCc1c(C)nc2cc(-c3cccc(F)c3)nn2c1C)C(C)C (centres undefined) | inactive | 
17 | CC1CCn2c(nc3cc(C(=O)NCCc4ccccc4)ccc32)C1 (centres undefined) | active: 25.1 µM | 
18 | CCOc1ccc(C(=O)Nc2nc(-c3ccc(Br)cc3)ns2)cc1 | inconclusive: 0.794 µM [cytotoxic, full curve] | 
19 | COc1ccc(CC(=O)Nc2sc3c(c2C(=O)Nc2cccc(C)c2)CCCCC3)cc1 | inconclusive: 10 µM [cytotoxic, partial curve] | 
20 | Cc1cc(-c2nc3ncccc3o2)ccc1N | inconclusive: 22.4 µM [cytotoxic, single point] | 
21 | COc1ccccc1Nc1c2c(nc3ccc(NC(=O)c4ccc(OC)c(OC)c4)cc13)CCCC2 | active: 22.4 µM | 
22 | CCCc1sc(N/N=C/c2ccccn2)nc1-c1ccc(F)cc1 | inconclusive: 7.94 µM [cytotoxic, partial curve] | 

Row | Structure (SMILES) | Potency | activity, negative = cell killing
23 | Cc1cccc(Nc2nn3c(=O)c4cc5c(cc4nc3s2)OCO5)c1 | inconclusive: 6.31 µM [cytotoxic, partial curve, poor fit] | 
24 | CCN(C(=O)Cn1nc(Cc2ccncc2)c2ccccc2c1=O)c1cccc(Cl)c1 | inconclusive: 12.6 µM [cytotoxic, partial curve, poor fit] | 
25 | Cc1ccc(NC(=O)CCNS(=O)(=O)c2ccc3c(c2)CCN3C(=O)C2CC2)c(Cl)c1 | inconclusive: 20 µM [cytotoxic, single point] | 
26 | O=C(CCS(=O)(=O)c1nc(-c2ccc3c(c2)OCO3)cc(C(F)(F)F)n1)Nc1ccc(F)c(Cl)c1 | inconclusive: 25.1 µM [cytotoxic, single point] | 
27 | Cc1ccc(C(=O)CSc2nnc(-c3ccccc3)n2-c2ccccc2)cc1 | inactive | 
28 | CCCC(=O)Nc1cc(-c2nc3cccnc3s2)ccc1C | inconclusive: 12.6 µM [cytotoxic, single point] | 
29 | Cc1ccc(NC(=O)NCC2CCN(Cc3cccc(Cl)c3)CC2)cc1Cl | inconclusive: 25.1 µM [cytotoxic, single point] | 
30 | CC(NC(=O)c1cccc(NC(=O)c2nsc3ccccc23)c1)c1ccccc1 (centres undefined) | inconclusive: 11.2 µM [cytotoxic, single point] | 
31 | CC(C)c1ccc2oc(-c3cc(NC(=O)c4cccnc4)ccc3Cl)nc2c1 | inconclusive: 15.8 µM [cytotoxic, single point] | 
32 | COc1cccc2c1cc1c(=O)n(CC(=O)NCc3ccc(N(C)C)cc3)nc(C)n12 | inconclusive: 35.5 µM [cytotoxic, single point] | 
33 | COc1cc(O)ccc1-c1nc2cc(C)ccn2c1Nc1ccccc1C | inconclusive: 15.8 µM [cytotoxic, partial curve, poor fit] | 
34 | O=C(Nc1cccc(O)c1)c1cc(-c2ccccc2F)no1 | inconclusive: 0.794 µM [cytotoxic, full curve, poor fit] | 
35 | CCc1ccc(NS(=O)(=O)c2ccc(NC(=O)N3CCCC3)cc2)cc1 | inactive | 
36 | Oc1cccc(Nc2cc(-c3ccccc3)ncn2)c1 | inconclusive: 2.51 µM [cytotoxic, partial curve] | 
37 | CCOc1ccccc1C(=O)Nc1cc(-c2nc3cccnc3s2)ccc1C | inconclusive: 14.1 µM [cytotoxic, partial curve, poor fit] | 
38 | COc1ccc(Nc2oc(-c3ccc(COc4ccccc4)o3)nc2C#N)cc1 | inconclusive: 10 µM [cytotoxic, partial curve, poor fit] | 
39 | CCOCCCNC(=O)Cn1cc2c(n1)-c1c(oc(C(=O)N3CCCC3)c1C)CC2 | inconclusive: 0.0398 µM [cytotoxic, full curve] | 
40 | CCOC(=O)c1ccccc1NC(=O)c1nn(-c2ccc(C)cc2)c(=O)n(C)c1=O | inactive | 
41 | CCCCN(Cc1ccco1)C(=O)c1cc2c(s1)-c1c(C)cccc1OC2 | inactive | 
42 | Cc1cc(C)cc(NC(=S)N2CCN(c3ncccn3)CC2)c1 |  | inactive: 2.92% [at 1.84 µM]
43 | CC1CCN(S(=O)(=O)c2cc(C(=O)NCCc3ccccc3)n(C)c2)CC1 | inactive | 
44 | CCOCCCNC(=O)c1cc2c(=O)n3ccccc3nc2s1 | inconclusive: 15.8 µM [cytotoxic, single point] | 

Row | Structure (SMILES) | Potency | activity, negative = cell killing
45 | COc1ccccc1Nc1nn2c(=O)c3ccc(C(=O)Nc4ccc(F)cc4)cc3nc2s1 | inactive | 
46 | CCN(c1ccccc1)S(=O)(=O)c1ccc(NC(=O)c2cc(=O)c3ccc(C)c(C)c3o2)cc1 | inactive | 
47 | Cc1ccc2nc(-c3ccc(NC(=O)C(F)(F)F)cc3)sc2c1 | active: 1.26 µM | 
48 | CCCC(=O)Nc1cc(C(=O)NCc2ccc(OC)cc2)ccc1S(=O)(=O)c1ccc(Cl)cc1 | inactive | 
49 | Cc1nn(CC(=O)NCc2ccccc2Cl)c(=O)c2cccn12 | inconclusive: 12.6 µM [cytotoxic, single point] | 
50 | Cc1cccc(-c2nc(CCNC(=O)c3ccccc3Br)cs2)c1 | inconclusive: 25.1 µM [cytotoxic, single point] | 
51 | Cn1nnnc1SCCNCc1ccc(OCc2ccccc2)cc1 |  | inconclusive: -30.6% [cytotoxic]
52 | COc1ccc(-c2cc(C(F)(F)F)nc(SCC(=O)N3CCCCC3)n2)cc1OC | inconclusive: 12.6 µM [cytotoxic, partial curve] | 
53 | COc1ccc(CCCc2nnc(SCC(=O)Nc3cccc(C)c3)o2)cc1C | inactive | 
54 | Cc1ccc(-n2nc(C(=O)N3CCN(c4ccc(F)cc4)CC3)c(=O)n(C)c2=O)cc1 | inconclusive: 35.5 µM [cytotoxic, single point] | 
55 | Cc1ccc(Nc2cc(C)nc(-n3nc(C)cc3C)n2)cc1 | inconclusive: 14.1 µM [cytotoxic, single point] | 
56 | COc1ccc(-c2noc(-c3ccc(N4CCN(C)CC4)c([N+](=O)[O-])c3)n2)cc1 | inactive | 
57 | Cc1cccc(N(C)S(=O)(=O)c2ccc(-c3cc(C)no3)s2)c1 | inconclusive: 6.31 µM [cytotoxic, partial curve] | 
58 | CC(C)(C)c1ccc(-c2nc(SCCOc3ccc(Cl)cc3)n3[nH]c(=O)cc3n2)cc1 | inconclusive: 31.6 µM [cytotoxic, single point] | 
59 | CC1CCCN(c2ncnc3c2cnn3-c2ccc(F)cc2)C1 (centres undefined) | inconclusive: 5.01 µM [cytotoxic, partial curve, poor fit] | 
60 | CCN(CC)c1cc(C)c2cc(NC(=O)/C=C/c3ccccc3Cl)ccc2n1 | inconclusive: 31.6 µM [cytotoxic, single point] | 
61 | COc1cc2c(=O)n(Cc3ccco3)c(=O)n(CC(=O)Nc3ccc(F)cc3)c2cc1OC | inconclusive: 0.794 µM [cytotoxic, full curve, poor fit] | 
62 | Cc1ccc2c(c1)C(=O)C(=O)N2Cc1ccc(OCCC(C)C)cc1 | inconclusive: 10 µM [cytotoxic, partial curve] | 
63 | COc1ccc(NC(=O)c2cc(C(C)=O)n3ccccc23)cc1 | inconclusive: 0.316 µM [cytotoxic, partial curve] | 
64 | Cc1ccc(CN2CCC(CNC(=O)c3cnn(-c4ccccc4)c3C3CCN(C(=O)OC(C)(C)C)CC3)CC2)cc1 | inconclusive: 31.6 µM [cytotoxic, single point] | 
